Screen size: about 330,000 compounds; about 300 (0.091%) were called active. Inconclusive results, whose numbers are uncertain, are shown with a selection of clear calls. Calls come from the whole dose curve; as a rule, active = well fitted inhibition curve with a large enough effect; inconclusive = small, poorly fitted or top-dose-only effect, or effect the other way, or another doubt; inactive = no such curve, though single readings can be large or run the other way. No potency is given beside an inconclusive call; the fits are too rough.
Molecular target: Lysosomal acid glucosylceramidase (Homo sapiens) (UniProt P04062)
Assay: qHTS Assay for Inhibitors and Activators of N370S glucocerebrosidase as a Potential Chaperone Treatment of Gaucher Disease;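 for activity change, negative = inhibition: 0% = full enzyme activity and -100% = no enzyme basal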
Conditions: N370S GC spleen homogenate, 4MU-glucoside fluorescence; activity change, negative = inhibition: at 59.4 µM (top of the series) unless noted
Potency is the fitted concentration of half-maximal effect.

SMILES | Potency | activity change, negative = inhibition
O=C(CSc1nc2ccccc2c(=O)n1-c1ccc(F)cc1)Nc1ccc2c(c1)CCC2 | inconclusive [activator, partial curve] | 
CNc1nc(-c2ccccc2)cc(C)c1S(C)(=O)=O | inconclusive [activator, single point] | 
CCOc1ccc2nc(NS(=O)(=O)Cc3ccccc3)sc2c1 |  | inactive: 2.06%
CC(=O)Nc1ccc(-c2cn3cccnc3n2)cc1 | inconclusive [activator, partial curve, poor fit] | 
Cn1c(-c2ccc(N)cc2)nc2ccccc21 | inconclusive [activator, partial curve] | 
CC(C)CCn1c(N)c(S(=O)(=O)c2cccs2)c2nc3ccccc3nc21 | inconclusive [activator, partial curve] | 
O=C(NC(=S)Nc1cccnc1Cl)c1ccco1 |  | inactive: -3.2%
O=C(CN1CCN(S(=O)(=O)/C=C/c2ccccc2)CC1)NC(=O)NCc1ccco1 | inconclusive [inhibitor, single point] | 
CCOC(=O)C(=O)NNc1ccc(F)cc1 | inconclusive [inhibitor, single point] | 
Cc1ccc(S(=O)(=O)[N-]c2nc3ccccc3nc2-n2cc[n+](CCC(C)C)c2)cc1 | inconclusive [activator, partial curve] | 
CC/C=C/[C@@H](c1ccccc1)[C@H](C)C(O)CC(=O)SC(C)(C)C (some centres not stated) |  | inactive: 10.2%
CC(=O)NC(Cc1ccccc1C)C(=O)NC1CCN(c2ncccc2[N+](=O)[O-])CC1 (configuration not stated) | inconclusive [inhibitor, partial curve, poor fit] | 
CCN1CCN(Cc2ccc3c(c2)Cc2ccccc2-3)CC1 | inconclusive [inhibitor, full curve, poor fit] | 
COCCNc1c2c(c(C#N)c3nc4ccccc4n13)CCCC2 | inconclusive [activator, partial curve] | 
O=S(=O)(c1ccc2nc(Nc3ccccc3)ccc2c1)N1CCCCC1 | inconclusive [activator, single point] | 
COc1ccc(N2CCc3c(C)nc4c(OC)cccc4c32)cc1 | inconclusive [inhibitor, partial curve] | 
CC(C)(C)NC(=O)C(=O)NC(=O)c1c(F)cccc1Cl | inconclusive [inhibitor, full curve, poor fit] | 
Cc1csc(NC(=O)c2ccc3c(c2)OCO3)n1 |  | inactive: -0.557%
CCC1S/C(=N\S(=O)(=O)c2cccs2)N(C2CCCCC2)C1=O (configuration not stated) |  | inactive: 7.48%
CCN(CC)S(=O)(=O)c1ccc(N2Cc3ccccc3C2=N)cc1 | inconclusive [activator, partial curve, poor fit] | 
COC(=O)C1=C(C(=O)OC)[C@@H]2N(C)c3ccccc3[C@@]23C[C@@H](C(=O)OC)N(S(=O)(=O)c2ccc(C)cc2)C3=N1 |  | inactive: -8.81% [at 12.8 µM]

SMILES | Potency | activity change, negative = inhibition
COC(=O)c1c(NC(=O)c2nc3nc(C)cc(C(F)F)n3n2)sc2c1CCC2 | inconclusive [activator, partial curve] | 
Cc1nc(C(=O)NCCC(C)C)sc1C1(C)CC(c2cccc([N+](=O)[O-])c2)=NO1 (configuration not stated) | inconclusive [activator, partial curve] | 
O=C(/C=C/c1ccccc1)Nc1ccc(Cl)cn1 |  | inactive: 6.06%
Oc1ccc(NC(=S)N=Nc2c(O)[nH]c3ccc(Br)cc23)cc1 |  | inactive: -28.5%
Cc1coc2c1c(C)cc1oc(=O)c(CC(=O)NCC(=O)O)c(C)c12 | inconclusive [activator, partial curve] | 
CCN(CC)c1nc2ccccc2nc1C(C#N)C(=O)NCCc1ccccc1 (configuration not stated) | inconclusive [activator, single point] | 
CC(C)C[C@@H](CC(=O)N[C@H](CC(=O)N[C@@H]1CCCC[C@H]1C(=O)N[C@H](CC(=O)N[C@@H](CCC(=O)O)CC(=O)O)Cc1c[nH]c2ccccc12)C(C)C)NC(=O)[C@@H]1CNCC[C@H]1N |  | inactive: 4.31%
Cc1nn(-c2ccccc2)c(C)c1/C=C/C(=O)OCC(=O)Nc1ncc(C(F)(F)F)cc1Cl | inconclusive [inhibitor, full curve, poor fit] | 
CCN1CCN(Cc2ccc(NC(=O)c3cc(NC(=O)c4ccno4)cc(OC)c3)cc2C(F)(F)F)CC1 | inconclusive [inhibitor, partial curve, poor fit] | 
O=C(CCC1CCCC1)N=C1SC2CS(=O)(=O)CC2N1c1ccccc1F (configuration not stated) | inconclusive [activator, full curve, poor fit] | 
CN1CCN(c2ncc3nc(-c4ccc(Cl)cc4)c(=O)n(C)c3n2)CC1 | inconclusive [activator, partial curve] | 
CCOC(=O)C1=C(C)N(C)C(=S)NC1c1cccc(Cl)c1Cl (configuration not stated) |  | inconclusive: 30.7% [activator]
CCN1CCN(CC(=O)N2CCCC(C(=O)c3ccc(Oc4ccccc4)cc3)C2)CC1 (configuration not stated) | inconclusive [inhibitor, single point] | 
CCOC(=O)c1nnn2c1nc(N1CCOCC1)c1ccccc12 |  | inactive: -1.6%
Cc1ccc(-c2csnn2)cc1 |  | inactive: 0.932%
O=C(Nc1ccon1)C12CC3CC(C1)CC(n1cnc([N+](=O)[O-])n1)(C3)C2 | inconclusive [activator, single point] | 
COCCNC(=S)N(CCCN(C)C)Cc1cc2cc3c(cc2[nH]c1=O)OCCO3 | inconclusive [activator, single point] | 
N#CCCn1c(=O)c(-c2cccs2)nc2cnc(OCc3ccccc3)nc21 | inconclusive [activator, partial curve, poor fit] | 
CCOC(=O)C(N)CSC1CC(=O)N(CCc2ccccc2)C1=O (configuration not stated) | inconclusive [inhibitor, full curve, poor fit] | 
CNc1nc(NCc2ccccc2)c2ccccc2n1 |  | inactive: 28.7%
COc1ccc(S(=O)(=O)N(C)c2ccc(C(=O)N3CCOCC3)cc2)cc1 |  | inactive: 4.72%

Reference: PubChem BioAssay AID2101 (National Center for Advancing Translational Sciences (NCATS), 2009)
